# The supplement of paper PMC8728848
# The other results are listed elsewhere or left out.
# B1: BDCA-2 (Homo sapiens), Q8WTT0 (protein)
# chain: MVPEEEPQDREKGLWWFQLKVWSMAVVSILLLSVCFTVSSVVPHNFMYSKTVKRLSKLREYQQYHPSLTCVMEGKDIEDWSCCPTPWTSFQSSCYFISTGMQSWTKSQKNCSVMGADLVVINTREEQDFIIQNLKRNSSYFLGLSDPGGRRHWQWVDQTPYNENVTFWHSGEPNNLDERCAIINFRSSEEWGWNDIHCHVPQKSICKMKKIYI
# Legend:
# Assay in all cases: glycan array binding signal (z-score within array); higher = stronger binding
# Conditions in all cases: glycan notation: IUPAC condensed, linker removed
# [1] = biological target: Fuc(a1-2)Gal
# How it was run: (§1)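 Glycan array binding is given as a within-array Z-score, which can be read as non-binding when negative. The arrays, 3228 of them, came from the Consortium for Functional Glycomics database and were retained only where the protein sequence was available. Z-scores were averaged across arrays of the same protein sequence at different concentrations or buffers and across linkers.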
# [2] = biological target: Fuc(a1-2)Gal(b1-3)GalNAc
# How it was run: as §1
# [3] = biological target: Fuc(a1-2)Gal(b1-3)GalNAc(a1-3)[Fuc(a1-2)]Gal(b1-4)Glc
# How it was run: as §1
# [4] = biological target: Fuc(a1-2)Gal(b1-3)GalNAc(a1-3)[Fuc(a1-2)]Gal(b1-4)GlcNAc
# How it was run: as §1
# [5] = biological target: Fuc(a1-2)Gal(b1-3)GalNAc(b1-3)Gal
# How it was run: as §1
# [6] = biological target: Fuc(a1-2)Gal(b1-3)GalNAc(b1-3)Gal(a1-4)Gal(b1-4)Glc
# How it was run: as §1
# [7] = biological target: Fuc(a1-2)Gal(b1-3)GalNAc(b1-4)[Neu5Ac(a2-3)]Gal(b1-4)Glc
# How it was run: as §1
# [8] = biological target: Fuc(a1-2)Gal(b1-3)GlcNAc
# How it was run: as §1
# [9] = biological target: Fuc(a1-2)Gal(b1-3)GlcNAc(b1-2)Man(a1-3)[Fuc(a1-2)Gal(b1-3)GlcNAc(b1-2)Man(a1-6)]Man(b1-4)GlcNAc(b1-4)GlcNAc
# How it was run: as §1
# [10] = biological target: Fuc(a1-2)Gal(b1-3)GlcNAc(b1-2)Man(a1-3)[Fuc(a1-2)Gal(b1-3)GlcNAc(b1-2)Man(a1-6)]Man(b1-4)GlcNAc(b1-4)[Fuc(a1-6)]GlcNAc
# How it was run: as §1
# [11] = biological target: Fuc(a1-2)Gal(b1-3)GlcNAc(b1-3)Gal(b1-4)Glc
# How it was run: as §1
# [12] = biological target: Fuc(a1-2)Gal(b1-3)GlcNAc(b1-3)GalNAc
# How it was run: as §1
# [13] = biological target: Fuc(a1-2)Gal(b1-3)GlcNAc(b1-3)[Fuc(a1-2)Gal(b1-3)GlcNAc(b1-6)]GalNAc
# How it was run: as §1
# [14] = biological target: Fuc(a1-2)Gal(b1-3)GlcNAc(b1-3)[Gal(b1-4)GlcNAc(b1-6)]Gal(b1-4)Glc
# How it was run: as §1
# [15] = biological target: Fuc(a1-2)Gal(b1-3)GlcNAc(b1-3)[Neu5Ac(a2-6)Gal(b1-4)GlcNAc(b1-6)]Gal(b1-4)Glc
# How it was run: as §1
# [16] = biological target: Fuc(a1-2)Gal(b1-3)GlcNAc6S
# How it was run: as §1
# [17] = biological target: Fuc(a1-2)Gal(b1-3)[Fuc(a1-4)]GlcNAc
# How it was run: as §1
# [18] = biological target: Fuc(a1-2)Gal(b1-3)[Fuc(a1-4)]GlcNAc(b1-2)Man(a1-3)[Fuc(a1-2)Gal(b1-3)[Fuc(a1-4)]GlcNAc(b1-2)Man(a1-3)]Man(b1-4)GlcNAc(b1-4)GlcNAc
# How it was run: as §1
# [19] = biological target: Fuc(a1-2)Gal(b1-3)[Fuc(a1-4)]GlcNAc(b1-2)Man(a1-3)[Fuc(a1-2)Gal(b1-3)[Fuc(a1-4)]GlcNAc(b1-2)Man(a1-6)]Man(b1-4)GlcNAc(b1-4)[Fuc(a1-6)]GlcNAc(b1-4)[Fuc(a1-6)]GlcNAc
# How it was run: as §1
# [20] = biological target: Fuc(a1-2)Gal(b1-3)[Fuc(a1-4)]GlcNAc(b1-3)[Fuc(a1-3)[Gal(b1-4)]GlcNAc(b1-6)]Gal(b1-4)Glc
# How it was run: as §1
# [21] = biological target: Fuc(a1-2)Gal(b1-3)[Fuc(a1-4)]GlcNAc(b1-3)[Gal(b1-4)GlcNAc(b1-6)]Gal(b1-4)Glc
# How it was run: as §1
# [22] = biological target: Fuc(a1-2)Gal(b1-4)Fuc(a1-3)]GlcNAc(b1-2)Man(a1-3)[Fuc(a1-2)Gal(b1-4)[Fuc(a1-3)]GlcNAc(b1-2)Man(a1-6)]Man(b1-4)GlcNAc(b1-4)GlcNAc
# How it was run: as §1
# [23] = biological target: Fuc(a1-2)Gal(b1-4)Glc
# How it was run: as §1
# [24] = biological target: Fuc(a1-2)Gal(b1-4)Glc6S
# How it was run: as §1
# [25] = biological target: Fuc(a1-2)Gal(b1-4)GlcNAc
# How it was run: as §1
# [26] = biological target: Fuc(a1-2)Gal(b1-4)GlcNAc(b1-2)Man
# How it was run: as §1
# [27] = biological target: Fuc(a1-2)Gal(b1-4)GlcNAc(b1-2)Man(a1-3)[Fuc(a1-2)Gal(b1-4)GlcNAc(b1-2)Man(a1-6)]Man(b1-4)GlcNAc(b1-4)GlcNAc
# How it was run: as §1
# [28] = biological target: Fuc(a1-2)Gal(b1-4)GlcNAc(b1-2)Man(a1-3)[Fuc(a1-2)Gal(b1-4)GlcNAc(b1-2)Man(a1-6)]Man(b1-4)GlcNAc(b1-4)[Fuc(a1-6)]GlcNAc
# How it was run: as §1
# [29] = biological target: Fuc(a1-2)Gal(b1-4)GlcNAc(b1-2)[Fuc(a1-2)Gal(b1-4)GlcNAc(b1-4)]Man(a1-3)[Fuc(a1-2)Gal(b1-4)GlcNAc(b1-2)Man(a1-6)]Man(b1-4)GlcNAc(b1-4)GlcNAc
# How it was run: as §1
# [30] = biological target: Fuc(a1-2)Gal(b1-4)GlcNAc(b1-3)Gal(b1-4)GlcNAc
# How it was run: as §1
binder,measurement,setting,value
B1,glycan array binding signal (z-score),[1],-0.149
same,glycan array binding signal (z-score),[2],-0.196
same,glycan array binding signal (z-score),[3],-0.127
same,glycan array binding signal (z-score),[4],-0.169
same,glycan array binding signal (z-score),[5],-0.075
same,glycan array binding signal (z-score),[6],-0.125
same,glycan array binding signal (z-score),[7],-0.18
same,glycan array binding signal (z-score),[8],-0.15
same,glycan array binding signal (z-score),[9],-0.092
same,glycan array binding signal (z-score),[10],-0.094
same,glycan array binding signal (z-score),[11],0.216
same,glycan array binding signal (z-score),[12],-0.135
same,glycan array binding signal (z-score),[13],-0.177
same,glycan array binding signal (z-score),[14],-0.17
same,glycan array binding signal (z-score),[15],-0.143
same,glycan array binding signal (z-score),[16],-0.191
same,glycan array binding signal (z-score),[17],-0.218
same,glycan array binding signal (z-score),[18],-0.069
same,glycan array binding signal (z-score),[19],-0.124
same,glycan array binding signal (z-score),[20],-0.178
same,glycan array binding signal (z-score),[21],-0.156
same,glycan array binding signal (z-score),[22],-0.106
same,glycan array binding signal (z-score),[23],0.011
same,glycan array binding signal (z-score),[24],-0.178
same,glycan array binding signal (z-score),[25],-0.174
same,glycan array binding signal (z-score),[26],-0.183
same,glycan array binding signal (z-score),[27],-0.085
same,glycan array binding signal (z-score),[28],-0.159
same,glycan array binding signal (z-score),[29],-0.163
same,glycan array binding signal (z-score),[30],-0.038
